Measured values as given in the antibiotic and cytotoxicity screens of Wong et al. (2023).
The other results are listed elsewhere or left out.

How the values were obtained:
HSkMC = human skeletal muscle cells; assay: cytotoxicity call (relative viability < 0.9); conditions: 10 µM
HepG2 = assay: cytotoxicity call (relative viability < 0.9); conditions: 10 µM
S. aureus RN4220 = assay: growth inhibition call (relative growth <= 0.2); conditions: 50 µM

SMILES | cytotoxicity call (HSkMC) | cytotoxicity call (HepG2) | growth inhibition call (S. aureus RN4220)
N[C@@H]1CCCN(c2c(/C=C3\SC(=O)NC3=O)cccc2-c2ccccc2)C1 | inactive | inactive | inactive
C[C@H]1CN([C@@H](C)CO)C(=O)c2cccc(NC(=O)Nc3cccc4ccccc34)c2O[C@H]1CN(C)Cc1ccc(Cl)c(Cl)c1 | inactive | inactive | inactive
C[C@H](CO)N1C[C@H](C)[C@H](CN(C)S(=O)(=O)c2cn(C)cn2)Oc2ccc(NS(=O)(=O)c3cccs3)cc2CC1=O | inactive | inactive | inactive
CO[C@@H]1CN(C)C(=O)c2cc(NC(=O)NC(C)C)ccc2OC[C@H](C)N(Cc2ccc(-c3ccccn3)cc2)C[C@@H]1C | inactive | inactive | inactive
C[C@H](CO)N1C[C@H](C)[C@@H](CN(C)S(C)(=O)=O)Oc2ccc(NC(=O)CCN3CCOCC3)cc2CC1=O | inactive | inactive | inactive
C[C@@H]1CN([C@@H](C)CO)C(=O)c2cccc(NC(=O)Nc3ccc(C(F)(F)F)cc3)c2O[C@@H]1CN(C)C(=O)Nc1ccc(C(F)(F)F)cc1 | active | active | inactive
CN(C)C1C(O)=C(C(N)=O)C(=O)C2(O)C(O)=C3C(=O)c4c(O)ccc(Cl)c4C(O)C3CC12.Cl (centres undefined) | inactive | inactive | inactive
C[C@@H]1CN([C@H](C)CO)C(=O)c2cc(NC(=O)CCCCCC(=O)Nc3ccccc3N)ccc2O[C@H]1CN(C)CC1CCCCC1 | inactive | inactive | inactive
COc1ccc(S(=O)(=O)Nc2ccc3c(c2)C(=O)N([C@@H](C)CO)C[C@@H](C)[C@H](CN(C)S(=O)(=O)c2ccc(OC)cc2)O3)cc1 | inactive | inactive | inactive
CN(C)C(=O)CN1C[C@@H]2CCN(C(=O)NCc3ccccc3)CC[C@H]2S1(=O)=O | inactive | inactive | inactive
CC(C)CC#Cc1cnc2c(c1)C(=O)N([C@H](C)CO)C[C@@H](C)[C@H](CN(C)C(=O)c1ccc3c(c1)OCO3)O2 | inactive | inactive | inactive
CC(C)CN1C[C@@H]2CCNCC[C@H]2S1(=O)=O | inactive | inactive | inactive
COc1ccc(NC(=O)Nc2ccc3c(c2)C(=O)N([C@@H](C)CO)C[C@@H](C)[C@H](CN(C)S(=O)(=O)c2ccc(C)cc2)OCCCC[C@H](C)O3)cc1 | inactive | inactive | inactive
COc1ccc2cc1Oc1ccc(cc1)CC1c3c(cc4c(c3Oc3cc5c(cc3OC)CCN(C)C5C2)OCO4)CCN1C (centres undefined) | inactive | active | inactive
O=C(NC1(C(F)(F)F)Oc2cc(Cl)c(Cl)cc2O1)C1=C(N2CCOCC2)/C(=C/c2ccccc2)CC1 | inactive | active | inactive
COc1ccc(C#Cc2ccc3c(c2)O[C@@H](CN(C)S(=O)(=O)c2ccccc2F)[C@H](C)CN([C@H](C)CO)S3(=O)=O)cc1 | inactive | inactive | inactive
COCC(=O)N1C[C@@H](C)[C@@H](OC)CN(C)C(=O)c2ccc(NC(=O)c3cc(C)on3)cc2OC[C@H]1C | inactive | inactive | inactive
Nc1cccc2c(=O)[nH][nH]c(=O)c12 | inactive | inactive | inactive
C[C@@H]1CCCCO[C@H](CN(C)C(=O)Nc2ccc(F)cc2)[C@H](C)CN([C@H](C)CO)C(=O)c2cc(NC(=O)Nc3ccc(F)cc3)ccc2O1 | inactive | inactive | inactive
C[C@H](CO)N1C[C@H](C)[C@@H](CN(C)C(=O)Nc2cccc3ccccc23)Oc2c(NC(=O)CCCCCC(=O)Nc3ccccc3N)cccc2C1=O | inactive | inactive | inactive
CC(C)N1CC=C[C@@]23O[C@@H]4C=CCCOC(=O)[C@@H]4[C@H]2C(=O)N(CCCO)[C@@H]3C1=O | inactive | inactive | inactive
C[C@@H]1CN([C@@H](C)CO)C(=O)c2cc(NC(=O)C3CCCCC3)ccc2O[C@H]1CN(C)Cc1ccc(Cl)c(Cl)c1 | inactive | inactive | inactive
Cc1cc(C(=O)Nc2cccc3c2O[C@@H](CN(C)Cc2ccc(C(=O)O)cc2)[C@H](C)CN([C@H](C)CO)C3=O)n(C)n1 | inactive | inactive | inactive
O=C(C[C@H]1C=C[C@H](NS(=O)(=O)c2ccc(F)cc2)[C@@H](CO)O1)N1CCC(Cc2ccccc2)CC1 | inactive | inactive | inactive
Cc1ncc(CSSCc2cnc(C)c(O)c2CO)c(CO)c1O | inactive | inactive | inactive
C[C@H](CO)N1C[C@H](C)[C@H](CN(C)C(=O)C2CC2)OCc2cnnn2CCCC1=O | inactive | inactive | inactive
COc1ccc(NC(=O)N(C)C[C@H]2Oc3cc(Br)ccc3S(=O)(=O)N([C@H](C)CO)C[C@@H]2C)cc1 | inactive | inactive | inactive
C[C@@H]1CN([C@H](C)CO)C(=O)c2c(c3ccccc3n2C)-c2ccccc2CO[C@@H]1CN(C)C(=O)Nc1ccc(-c2ccccc2)cc1 | inactive | inactive | inactive
